Test results: US20260055169A1 (PARAGON THERAPEUTICS, published 2026)
Changes are numbered by the printed parent chain. Names may count otherwise.

B1: VHH 1 - G4S - wild-type IgG1 Fc fusion (VHH-Fc fusion, SEQ ID NO: 5) (Fc fusion)
chain: QVQLVESGGGLVQPGGSLRLSCAASGFTFGQFGMSWVRQAPAKGPERVSAISSDGSGTIYADSVKGRFTISRDNAKNTLYLQMNSLKPEDTAVYYCTIGSSTTPSGPGQGTQVTVSSGGGGS[letters of human IgG1 Fc left out]
notes: also called VHH-1 Fc fusion
B2: VHH 6 - G4S - wild-type IgG1 Fc fusion (VHH-Fc fusion, SEQ ID NO: 147) (Fc fusion)
chain: QVQLVESGGGLVQPGGSLRLSCAASGFTFGSFGMSWVRQAPGKGPEWVSAIDSGGADTRYAESVKGRFTISRDNAKKTLYLQMNSLKPEDTAVYYCTIGQSTSRGSQGTQVTVSSGGGGS[letters of human IgG1 Fc left out]
B3: VHH 2 - G4S - wild-type IgG1 Fc fusion (VHH-Fc fusion, SEQ ID NO: 143) (Fc fusion)
chain: B2 chain with S31R, Q100R
B4: VHH 3 - G4S - wild-type IgG1 Fc fusion (VHH-Fc fusion, SEQ ID NO: 144) (Fc fusion)
chain: B2 chain with Q1E
B5: VHH 4 - G4S - wild-type IgG1 Fc fusion (VHH-Fc fusion, SEQ ID NO: 145) (Fc fusion)
chain: B2 chain with V5Q, K77S, Q100R, T102S
B6: VHH 5 - G4S - wild-type IgG1 Fc fusion (VHH-Fc fusion, SEQ ID NO: 146) (Fc fusion)
chain: B2 chain with Q1E, A56T, V64I
B7: VHH 7 - G4S - wild-type IgG1 Fc fusion (VHH-Fc fusion, SEQ ID NO: 148) (Fc fusion)
chain: B2 chain with Q1E, P14S, S53G
B8: VHH 8 - G4S - wild-type IgG1 Fc fusion (VHH-Fc fusion, SEQ ID NO: 149) (Fc fusion)
chain: B2 chain with Q1E, G54S, Q100R, G105R, S106N, S114A
B9: VHH 9 - G4S - wild-type IgG1 Fc fusion (VHH-Fc fusion, SEQ ID NO: 150) (Fc fusion)
chain: B2 chain with Q1E, Q100R
B10: VHH 11 - G4S - wild-type IgG1 Fc fusion (VHH-Fc fusion, SEQ ID NO: 152) (Fc fusion)
chain: B2 chain with S63T, A75L, Q100R
B11: VHH 12 - G4S - wild-type IgG1 Fc fusion (VHH-Fc fusion, SEQ ID NO: 153) (Fc fusion)
chain: B2 chain with A56G, A61S, E62D, T69A, V93A, Q100R
B12: VHH 13 - G4S - wild-type IgG1 Fc fusion (VHH-Fc fusion, SEQ ID NO: 154) (Fc fusion)
chain: B2 chain with Q1E, P14A, A40V, A56T, V64I, T69I
B13: VHH 14 - G4S - wild-type IgG1 Fc fusion (VHH-Fc fusion, SEQ ID NO: 155) (Fc fusion)
chain: B2 chain with A56G, Q100R, G105V, S106G
B14: VHH 15 - G4S - wild-type IgG1 Fc fusion (VHH-Fc fusion, SEQ ID NO: 156) (Fc fusion)
chain: B2 chain with V5Q, R19T, G54S, E62D, Q100R
B15: VHH 16 - G4S - wild-type IgG1 Fc fusion (VHH-Fc fusion, SEQ ID NO: 157) (Fc fusion)
chain: B2 chain with Q1E, S85N, V93M, Q100R
B16: VHH 17 - G4S - wild-type IgG1 Fc fusion (VHH-Fc fusion, SEQ ID NO: 158) (Fc fusion)
chain: B2 chain with V5Q, G16D, K43R, G44E, S85T, Q100R
B17: VHH 18 - G4S - wild-type IgG1 Fc fusion (VHH-Fc fusion, SEQ ID NO: 159) (Fc fusion)
chain: B2 chain with A56T, V64I
B18: VHH 19 - G4S - wild-type IgG1 Fc fusion (VHH-Fc fusion, SEQ ID NO: 160) (Fc fusion)
chain: B2 chain with A56G, D57V, R59L, P88S
B19: VHH 20 - G4S - wild-type IgG1 Fc fusion (VHH-Fc fusion, SEQ ID NO: 161) (Fc fusion)
chain: B2 chain with S53G, Q100G
B20: VHH 21 - G4S - wild-type IgG1 Fc fusion (VHH-Fc fusion, SEQ ID NO: 162) (Fc fusion)
chain: B2 chain with T28S, S63T, Q100R
B21: VHH 22 - G4S - wild-type IgG1 Fc fusion (VHH-Fc fusion, SEQ ID NO: 163) (Fc fusion)
chain: B2 chain with P14A, A56V
B22: VHH-Fc fusion control (SEQ ID NO: 33) (Fc fusion)
chain: EVQLLESGGGLVQPGGSLRLSCAASGFTFRSFGMSWVRQAPGKGPEWVSSISGSGSDTLYADSVKGRFTISRDNSKNTLYLQMNSLRPEDTAVYYCTIGGSLSRSSQGTLVTVSSGGGGS[letters of human IgG1 Fc left out]
notes: also called VHH-Fc control; control VHH-Fc
B23: Fc-VHH 1-4 fusion (SEQ ID NO: 38) (Fc fusion)
chain: [letters of human IgG1 Fc left out]GGGSQVQLVESGGGLVQPGGSLRLSCAASGFTFGQFGMSWVRQAPAKGPERVSAISSGGSGTIYADSVKGRFTISRDNAKNTLYLQMNSLKPEDTAVYYCTIGSSTTPSGPGQGTQVTVSS
B24: Fc-VHH 1-7 fusion (SEQ ID NO: 41) (Fc fusion)
chain: [letters of human IgG1 Fc left out]GGGSEVQLVESGGGLVQPGGSLRLSCAASGFTFGQFGMSWVRQAPGKGLEWVSAISSDGSGTIYADSVKGRFTISRDNSKNTLYLQMNSLRAEDTAVYYCTIGSSTTPSGWGQGTTVTVSS
B25: Fc-VHH 1-9 fusion (SEQ ID NO: 43) (Fc fusion)
chain: [letters of human IgG1 Fc left out]GGGSEVQLVESGGGLVQPGGSLRLSCAASGFTFGQFGMSWFRQAPGKEREFVSAISSDGSGTIYADSVKGRFTISRDNSKNTLYLQMNSLRAEDTAVYYCTIGSSTTPSGWGQGTTVTVSS
B26: Fc-VHH 9-5 fusion (SEQ ID NO: 213) (Fc fusion)
chain: [letters of human IgG1 Fc left out]GGGSEVQLVESGGGLVQPGGSLRLSCAASGFTFGSFGMSWVRQAPGKGLEWVSAIDSGGADTRYAESVKGRFTISRDNSKNTLYLQMNSLRAEDTAVYYCTIGRSASRGGQGTTVTVSS
B27: Fc-VHH 9-4 fusion (SEQ ID NO: 212) (Fc fusion)
chain: [letters of human IgG1 Fc left out]GGGSEVQLVESGGGLVQPGGSLRLSCAASGFTFGSFGMSWVRQAPGKGLEWVSAIDSGGADTRYAESVKGRFTISRDNSKNTLYLQMNSLRAEDTAVYYCTIGRSASRWGQGTTVTVSS
B28: Fc-VHH 9-6 fusion (SEQ ID NO: 214) (Fc fusion)
chain: [letters of human IgG1 Fc left out]GGGSEVQLVESGGGLVQPGGSLRLSCAASGFTFGSFGMSWFRQAPGKEREFVSAIDSGGADTRYAESVKGRFTISRDNSKNTLYLQMNSLRAEDTAVYYCTIGRSASRWGQGTTVTVSS
B29: Fc-VHH 9-7 fusion (SEQ ID NO: 215) (Fc fusion)
chain: [letters of human IgG1 Fc left out]GGGSEVQLVESGGGLVQPGGSLRLSCAASGFTFGSFGMSWFRQAPGKEREFVSAIDSGGADTRYAESVKGRFTISRDNSKNTLYLQMNSLRAEDTAVYYCTIGRSASRGGQGTTVTVSS

Target: T1, Recombinant cynomolgus serum albumin (cynomolgus, UniProt A2V9Z4 25-608)
T1 construct: Analyte in SPR
Assay: SPR Biacore 8K, VHH-Fc captured by anti-human Fc, albumin injected, pH 6.0, 25 C

Kd [µM] | koff [s⁻¹] | kon [M⁻¹ s⁻¹] | Binder
0.0366 | 0.00447 | 122000 | B1
0.0267 | 0.00219 | 82100 | B2
0.0435 | 0.004 | 92000 | B3
0.0244 | 0.00211 | 86200 | B4
0.0518 | 0.00977 | 189000 | B5
0.0195 | 0.00162 | 83400 | B6
0.0337 | 0.00213 | 63300 | B7
0.0494 | 0.00393 | 79700 | B8
0.047 | 0.00611 | 130000 | B9
0.0488 | 0.00678 | 139000 | B10
0.0568 | 0.00931 | 164000 | B11
0.0202 | 0.00167 | 82500 | B12
0.0503 | 0.00593 | 118000 | B13
0.0551 | 0.00411 | 74600 | B14
0.0505 | 0.00695 | 138000 | B15
0.0398 | 0.00582 | 146000 | B16
0.0197 | 0.00174 | 88200 | B17
0.0281 | 0.00223 | 79300 | B18
0.0368 | 0.00385 | 104000 | B19
0.0474 | 0.00662 | 140000 | B20
0.0363 | 0.00214 | 59200 | B21
0.00619 |  |  | B22

Target: T2, Recombinant human serum albumin (human, UniProt P02768)
T2 construct: Analyte in SPR
Assay: as above

Kd [µM] | koff [s⁻¹] | kon [M⁻¹ s⁻¹] | Binder
0.0239 | 0.00481 | 201000 | B1
0.0118 | 0.00125 | 106000 | B2
0.0188 | 0.00222 | 118000 | B3
0.0105 | 0.00117 | 112000 | B4
0.0197 | 0.00334 | 170000 | B5
0.00797 | 0.000873 | 109000 | B6
0.0178 | 0.00118 | 66200 | B7
0.0254 | 0.00214 | 84100 | B8
0.019 | 0.00289 | 153000 | B9
0.0198 | 0.00293 | 148000 | B10
0.0221 | 0.00337 | 152000 | B11
0.00846 | 0.000915 | 108000 | B12
0.0193 | 0.00269 | 139000 | B13
0.0306 | 0.00228 | 74400 | B14
0.0202 | 0.00312 | 155000 | B15
0.0142 | 0.00278 | 196000 | B16
0.00836 | 0.000976 | 117000 | B17
0.0128 | 0.00132 | 103000 | B18
0.0198 | 0.00294 | 149000 | B19
0.0197 | 0.00284 | 144000 | B20
0.0209 | 0.00129 | 61800 | B21
0.00358 |  |  | B22

Target: T1, Recombinant cynomolgus serum albumin
T1 sequence (A2V9Z4 25-608 limits assumed): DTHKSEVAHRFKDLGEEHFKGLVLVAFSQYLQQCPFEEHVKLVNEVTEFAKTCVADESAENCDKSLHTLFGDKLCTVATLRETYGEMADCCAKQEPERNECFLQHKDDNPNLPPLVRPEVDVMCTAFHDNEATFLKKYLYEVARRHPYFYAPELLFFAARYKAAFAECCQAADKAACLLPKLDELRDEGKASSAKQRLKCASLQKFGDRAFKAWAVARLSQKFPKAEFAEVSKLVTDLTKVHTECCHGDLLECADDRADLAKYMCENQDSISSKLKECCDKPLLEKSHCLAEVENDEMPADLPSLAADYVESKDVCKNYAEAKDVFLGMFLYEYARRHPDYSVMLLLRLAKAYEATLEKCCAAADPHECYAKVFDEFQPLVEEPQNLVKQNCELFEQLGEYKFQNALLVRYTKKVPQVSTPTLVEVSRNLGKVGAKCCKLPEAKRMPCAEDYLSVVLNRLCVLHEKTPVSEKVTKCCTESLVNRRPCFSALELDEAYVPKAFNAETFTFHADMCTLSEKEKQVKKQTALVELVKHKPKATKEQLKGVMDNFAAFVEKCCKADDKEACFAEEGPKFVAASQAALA
Assay: SPR Biacore 8K, VHH-Fc captured by anti-human Fc, albumin injected, pH 7.4, 25 C

Kd [µM] | Binder
0.0441 | B1
0.0539 | B2
0.0915 | B3
0.053 | B4
0.107 | B5
0.0404 | B6
0.0451 | B7
0.0811 | B8
0.0924 | B9
0.099 | B10
0.116 | B11
0.0409 | B12
0.0953 | B13
0.0707 | B14
0.102 | B15
0.082 | B16
0.0434 | B17
0.0606 | B18
0.0807 | B19
0.099 | B20
0.0515 | B21
0.0138 | B22

Target: T2, Recombinant human serum albumin
Assay: as above

Kd [µM] | Binder
0.0447 | B1
0.0307 | B2
0.0516 | B3
0.0281 | B4
0.0563 | B5
0.0234 | B6
0.0239 | B7
0.0425 | B8
0.0501 | B9
0.0536 | B10
0.0607 | B11
0.0225 | B12
0.0516 | B13
0.0379 | B14
0.0532 | B15
0.0439 | B16
0.0226 | B17
0.0336 | B18
0.0554 | B19
0.0537 | B20
0.0288 | B21
0.0121 | B22

Target: T3, Recombinant human serum albumin (human, UniProt P02768)
T3 construct: Analyte in SPR, 0-500 nM
Assay: SPR, Fc-VHH captured on anti-human Fc, human albumin as analyte, pH 6.0

binding result | Binder
no binding (tested: 500 nM) | B23
no binding (tested: 500 nM) | B24
no binding (tested: 500 nM) | B25
no binding (tested: 500 nM) | B26
no binding (tested: 500 nM) | B27
no binding (tested: 500 nM) | B28
no binding (tested: 500 nM) | B29
